Experimental data from the supplement of paper PMC7335073.
In all, about 4,100 sequences were measured (“relative CpG methylation activity (normalised to average over all NNNCGNNN flanks)”: median about 0.87, highest 2% from about 2.4 on). The list shows a part of the results.

Each sequence was assayed against DNMT3A catalytic domain (mouse) (UniProt O88508) (assay: relative CpG methylation activity (normalised to average over all NNNCGNNN flanks) (relative (1 = mean)); higher = more methylation of the central CpG). Conditions: system: in vitro, murine catalytic domain; CpG state: hemimethylated substrate pool; residues: 608-908.
How it was run: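 Pooled dsDNA substrates with a central CpG inside 10 random flanking nucleotides were methylated by murine DNMT3A or DNMT3B catalytic domain with 0.8 mM S-adenosyl-L-methionine in HEPES pH 7.5 buffer for 60 min at 37 °C. The DNA then went through proteinase K, BsaI-HFv2 digestion, hairpin ligation, bisulfite conversion and two-step PCR before Illumina sequencing. Relative methylation activity is the average methylation of each context with three flanking bases per side, divided by the mean over all contexts. Each experiment had two independent repeats.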

Row | Sequence | relative CpG methylation activity
1 | GAACGTGG | 0.282
2 | GTTCGGAA | 1.19
3 | CGTCGTTG | 0.217
4 | TTACGGTC | 2.21
5 | GTTCGACT | 0.876
6 | GTGCGACC | 1.61
7 | TACCGCAC | 0.956
8 | GGACGTTT | 0.479
9 | CTCCGTTT | 1.55
10 | GGACGTAC | 0.683
11 | CGACGGCG | 0.591
12 | CAACGAGC | 1.17
13 | AATCGTGC | 0.123
14 | TGACGACT | 0.687
15 | CCTCGGGC | 1.18
16 | AGGCGCTC | 1.58
17 | ATACGACA | 1.85
18 | GATCGGTT | 0.495
19 | GAACGCCA | 1.01
20 | ACCCGGTA | 0.917
21 | CTTCGGAG | 0.254
22 | TCTCGGAA | 0.868
23 | ATTCGGAC | 1.05
24 | CAACGCTA | 0.826
25 | CATCGACT | 0.6
26 | CGACGGTA | 0.633

Row | Sequence | relative CpG methylation activity
27 | ATTCGGTA | 0.466
28 | TCACGCTA | 1.56
29 | TGTCGCGA | 0.253
30 | GACCGTGA | 0.433
31 | ATGCGCTT | 2.2
32 | CTCCGTCA | 1.79
33 | GCCCGCTC | 1.99
34 | ATCCGTCT | 2.05
35 | TCACGGCT | 1.48
36 | TACCGTAC | 0.485
37 | CGACGAAT | 0.569
38 | GAGCGTAA | 0.71
39 | CACCGGGA | 0.737
40 | TAACGCGC | 1.05
41 | TTGCGTTG | 1.32
42 | AATCGTGA | 0.199
43 | CGGCGACG | 0.593
44 | GCCCGCGC | 0.97
45 | AATCGTCA | 0.734
46 | GCACGCGG | 0.576
47 | TATCGAGG | 0.25
48 | TACCGTTC | 0.759
49 | AGACGCTG | 1.09
50 | GAGCGAGG | 0.403
51 | CATCGCAG | 0.319
52 | CTCCGCGT | 1.98

Row | Sequence | relative CpG methylation activity
53 | GCCCGAAA | 1.39
54 | TGTCGGCC | 0.9
55 | TTACGCAT | 2.29
56 | GGCCGAGG | 0.41
57 | TACCGTGA | 0.609
58 | GGCCGCAG | 0.598
59 | GTACGCAC | 1.87
60 | GCTCGATT | 0.804
61 | TGACGGCA | 0.813
62 | TTACGCGA | 1.73
63 | CACCGGTA | 0.756
64 | CCTCGTAG | 0.669
65 | GGACGCTT | 1.1
66 | GCCCGGCA | 1.35
67 | GCTCGCGC | 1.47
68 | TGACGGCC | 1.1
69 | ATACGTCA | 2.47
70 | TATCGCCT | 1.86
71 | GCACGATT | 1.02
72 | ATTCGTTG | 0.368
73 | CACCGGTT | 0.586
74 | AAACGGGC | 0.976
75 | ATCCGCAA | 1.6
76 | CCCCGGCG | 1.03
77 | ACCCGCTG | 1.46
78 | CTCCGACC | 2.21

Row | Sequence | relative CpG methylation activity
79 | TATCGCGC | 0.611
80 | ATTCGGAG | 0.438
81 | TAGCGGGC | 0.438
82 | TGCCGGTA | 0.455
83 | TGGCGAGG | 0.323
84 | TGCCGGTT | 0.585
85 | CGGCGGAC | 0.652
86 | GCTCGCTT | 1.97
87 | ACACGCTT | 2.37
88 | GTGCGAAG | 0.806
89 | AGCCGGTC | 0.888
90 | TGCCGGAA | 0.858
91 | ATCCGGAG | 0.678
92 | CGGCGAAA | 0.645
93 | CGTCGGAT | 0.721
94 | ATTCGATC | 1.16
95 | TGGCGTTC | 0.5
96 | AGCCGGGC | 0.657
97 | TATCGAAT | 0.301
98 | TTACGCAG | 1.39
99 | ATCCGAGC | 1.96
100 | CCACGAAG | 0.566
101 | GTTCGGGA | 0.463
102 | TAGCGGCC | 1.02
103 | CAACGATA | 0.653
104 | ACCCGCAA | 1.35

Row | Sequence | relative CpG methylation activity
105 | CTGCGCAG | 0.583
106 | TTTCGTTC | 1.16
107 | CTTCGAAA | 1.03
108 | CGTCGCGG | 0.167
109 | TTTCGAGT | 0.662
110 | CTTCGATC | 1.22
111 | TATCGGCC | 1.04
112 | AAGCGTTT | 0.441
113 | CGTCGCAC | 0.873
114 | GAGCGTAT | 0.397
115 | ACCCGGGG | 0.682
116 | GGCCGCAT | 0.898
117 | GCTCGACA | 1.04
118 | ACACGTGG | 0.404
119 | GGACGGGA | 0.592
120 | TCGCGGTC | 0.714
121 | ACGCGGTG | 0.893
122 | TTCCGTCC | 2.26
123 | CTACGGGG | 1.1
124 | GCTCGTTG | 0.301
125 | CAGCGATT | 0.565
126 | GGCCGTCC | 0.962
127 | AGTCGTAA | 0.912
128 | GCGCGTGA | 0.76
129 | TGTCGGCA | 0.603
130 | CTACGGTG | 0.876

Row | Sequence | relative CpG methylation activity
131 | CATCGCGT | 0.635
132 | TGACGAGG | 0.449
133 | GGACGAGC | 1.1
134 | ACTCGGTA | 0.639
135 | TCTCGTCG | 1.61
136 | CTGCGCGT | 0.921
137 | TACCGTAG | 0.669
138 | CCTCGGCG | 1.12
139 | CACCGCGA | 0.587
140 | CAACGGTG | 0.292
141 | CGACGGCC | 1.02
142 | TGCCGTCG | 1.29
143 | GATCGCCC | 1.22
144 | TTACGTGT | 1.22
145 | ATGCGGGC | 1.26
146 | TGTCGTTA | 0.321
147 | CCACGTTG | 0.694
148 | TGTCGGGA | 0.267
149 | AGTCGCAG | 0.342
150 | TATCGGCA | 1.02
151 | ACTCGGAA | 0.682
152 | CGTCGCTC | 1.71
153 | CAACGGAT | 0.676
154 | GCACGGTC | 2.01
155 | TAGCGAAA | 0.507
